# Hit rate of the full screen: of about 52,000 compounds, about 4,300 (8.3%) were called active. No stated cut-off is given here; in the data, active means survival mostly below about 52% (no sharp cut-off); inactive means mostly above about 56%. Some of the results follow.
# Tested on: DeltatarO mutant
# Assay: S. aureus survival, RN4220 and DeltatarO strains – OD600, teichoic acid synthesis inhibitors, primary screen (AID 463173)
# Settings: S. aureus RN4220 wild type/DeltatarO growth, OD600, 18 h, active compounds read low, screened at 18.75 µg/mL (by protocol)
row,SMILES,survival
1,CCc1ccc(CNCc2c(C(=O)O)n(Cc3ccc(F)cc3Cl)c3cc(OC)ccc23)cc1,inactive: 111%
2,O=C(c1ccc(F)cc1)n1nc(-c2ccccc2)nc1NCc1ccc(F)cc1,active: 30%
3,COc1cc2ccccc2cc1C(=O)N1CCN(c2nc3ccc(F)cc3s2)CC1,inactive: 87%
4,CCc1ccccc1NC(=O)CCc1c(C)nn(-c2ccc(N3CCOCC3)nn2)c1C,inactive: 125%
5,CCc1nn2c(=O)cc(COC(=O)c3ccccc3NC(=O)C3CCCCC3)nc2s1,inactive: 76%
6,COc1ccc(-c2nc3n(c(=O)c2C#N)CCS3)cc1,inactive: 84%
7,Cc1ccc(CN(Cc2ccco2)C(=O)COc2ccc(Cl)cc2)o1,inactive: 59%
8,CCc1ccccc1NS(=O)(=O)c1ccc(NC(=O)N2CCCC2)cc1,inactive: 72%
9,COc1cc(NC(=O)c2cc3ccccn3n2)cc(OC)c1OC,inactive: 69%
10,COc1ccccc1NC(=O)CC(C)(C)C,inactive: 102%
11,CCOc1ccc(-c2cc(-c3nc(-c4cc(OC)c(OC)c(OC)c4)no3)[nH]n2)cc1,inactive: 119%
12,CN(C(=O)c1cc2c(s1)-c1ccc(Cl)cc1SC2)c1cccc(C(F)(F)F)c1,inactive: 65%
13,COc1ccc(CCNC(=O)c2cnc3sc(N4CCCC4)nn3c2=O)cc1OC,inactive: 80%
14,CCOc1ccc(-c2nnc(-c3ccc(Br)cc3)o2)cc1OCC,inactive: 75%
15,Cc1ccc(CNC(=O)c2nnn(CC(=O)Nc3cc(C)ccc3C)c2N)cc1,inactive: 94%
16,CCn1c(SCC(=O)Nc2cccc(Cl)c2C)nnc1C1CC1,inactive: 89%
17,CCn1nnnc1SCC(=O)N1c2ccccc2CCc2ccccc21,inactive: 88%
18,COc1cc(NC(=O)c2cc(C)nc3c2c(C)nn3-c2ccccc2Cl)cc(OC)c1,inactive: 62%
19,Cc1ccc2cc3c(N)nn(C(=O)c4cccc(F)c4)c3nc2c1,inactive: 82%
20,CC(=O)c1ccc(NC(=O)c2ccc(-c3nc(CSc4ccccc4)c(C)o3)cc2)cc1,inactive: 81%
21,Fc1ccc(-c2noc3ncnc(NCC4CCN(Cc5ccc(Cl)cc5)CC4)c23)cc1,inactive: 72%
22,c1ccc(Nc2nc(-c3ccncc3)cs2)cc1,inactive: 100%
23,CN1C(=O)CC(C(=O)O)SC1=Nc1cccc(C(F)(F)F)c1 (configuration not stated),inactive: 77%

row,SMILES,survival
1,O=C(Nc1ccccc1)C1CCCN1C1CCCCC1 (configuration not stated),inactive: 71%
2,CCn1ccc2c(OCC(=O)Nc3ccccc3C)cccc2c1=O,active: 8%
3,Cc1cc(C)cc(NC(=O)Cn2nnc(-c3nc(-c4ccncc4)no3)c2N)c1,inactive: 89%
4,COc1cc(C(c2nnnn2Cc2ccco2)N2CCN(C3CCCC3)CC2)cc(OC)c1OC (configuration not stated),inactive: 73%
5,Cc1ccc(N2CCN(S(=O)(=O)c3ccc(F)c(C(=O)Nc4ccc(Cl)cc4Cl)c3)CC2C)cc1 (configuration not stated),active: -4%
6,Cc1cc2c(cc3c(SCc4nc(-c5ccccc5)oc4C)nnc(C)n32)o1,inactive: 74%
7,O=C(COCc1cc(-c2ccc3c(c2)OCO3)on1)N1CCN(c2ccccc2)CC1,inactive: 102%
8,COc1ccccc1NC(=O)C1=C(C)Nc2nc(SCc3ccccc3F)nn2C1c1cccs1 (configuration not stated),inactive: 65%
9,Cc1ccc(C(CC(=O)O)C2CCOC(C)(C)C2)cc1 (configuration not stated),inactive: 98%
10,COc1ccc(-n2nnnc2C2CCN(S(=O)(=O)c3ccc(C(C)(C)C)cc3)CC2)cc1,inactive: 82%
11,CCC(CC)C(=O)Nc1nc2c(s1)CC(C)CC2 (configuration not stated),inactive: 73%
12,O=C(Nc1ccc2nc(SCC(=O)N3CCCc4ccccc43)sc2c1)c1ccccc1,inactive: 79%
13,CCC(=O)Nc1cccc(NC(=O)c2cccs2)c1,inactive: 72%
14,CCOC(=O)c1ccc(NC(=O)Nc2cc3c(cc2N2CCCC2)n(C)c(=O)n3C)cc1,inactive: 82%
15,COc1ccc(N2CCN(C(=O)c3cccc(NC(=O)c4nsc5ccccc45)c3)CC2)cc1,inactive: 119%
16,Nc1c(C(=O)Nc2ccc(F)c(F)c2)sc2nc(-c3ccncc3)ccc12,inactive: 70%
17,COC(=O)c1cc(NC(=O)c2nn(C)c3c2COc2ccccc2-3)cc(C(=O)OC)c1,inactive: 52%
18,COc1cccc(CNC(=O)c2cc(C)nc3c2c(C)nn3-c2cccc(F)c2)c1,inactive: 126%
19,Clc1c(-c2nnc(-c3ccc(N4CCOCC4)cc3)o2)sc2ccccc12,inactive: 70%
20,COc1ccc(Nc2ccc3cc(S(=O)(=O)N4CCCC4)ccc3n2)cc1Cl,inactive: 88%
21,O=C(O)/C=C/c1ccc(S(=O)(=O)N(CCO)CCO)cc1,inactive: 96%
22,COc1ccccc1OCC(=O)N(Cc1ccc(N(C)C)cc1)CC1CCCO1 (configuration not stated),inactive: 61%
23,CCOc1ccc(-n2c(SCC(=O)Nc3ccccc3OC)nc3c(oc4ccccc43)c2=O)cc1,inactive: 69%

row,SMILES,survival
1,CC(=O)c1ccc(NC(=O)C2CCN(S(=O)(=O)c3ccc4c(c3)CCCN4C(=O)C3CCC3)CC2)cc1,inactive: 95%
2,Cc1ccc2oc(=O)c3cnn(CC(=O)N(C)c4ccc(F)cc4)c3c2c1,inactive: 89%
3,Cc1ccc(C)c(NC(=O)N2CC=C(c3c[nH]c4ccccc34)CC2)c1,inactive: 99%
4,COc1ccc(N2CCN(S(=O)(=O)c3c(C)nc4scc(C)n4c3=O)CC2)cc1,inactive: 84%
5,Cc1cc(C)c(NC(=O)CSc2nc(C)cc(C)c2C#N)c(C)c1,inactive: 95%
6,Cc1cccc(N(C)C(=O)C(Cc2ccccc2)NS(=O)(=O)c2cccc3nsnc23)c1 (configuration not stated),inactive: 74%
7,O=C(/C(=N/O)n1cncn1)c1ccc(Cl)cc1Cl,inactive: 72%
8,O=C(CN1Cc2ccccc2C1=O)Nc1cc(F)ccc1F,inactive: 81%
9,Cc1cccc(NC(=O)Cn2cc(S(=O)(=O)c3ccc(F)cc3)c(=O)c3cc4c(cc32)OCO4)c1,inactive: 109%
10,CCc1cc(C(=O)Nc2cnn(Cc3ccc(F)cc3)c2)no1,inactive: 50%
11,CC(=O)c1cccc(NC(=O)c2cnn(-c3cccc(C)c3)c2-n2cccc2)c1,inactive: 99%
12,Cc1ccc(-c2c(C(=O)N3CCN(c4cccc(C)c4C)CC3)oc(=O)c3ccccc23)cc1,inactive: 78%
13,CCC(=O)N1CCc2cc(Br)cc(S(=O)(=O)NCCc3ccccc3Cl)c21,active: 39%
14,CCCSc1nc(=O)c2c(n1C)NC(=O)CC2c1cccc(F)c1F (configuration not stated),active: 54%
15,O=C(Cn1c(-c2cccs2)cc2cc(Cl)ccc21)NCc1ccccc1,inactive: 88%
16,COc1ccc(N2CCN(C(=O)Cc3c(C(=O)O)c(C)cn3C)CC2)cc1,inactive: 55%
17,CCOC(=O)c1c(NC(=O)CCCOc2ccc(C(C)(C)C)cc2)sc2c1CCC2,active: 9%
18,CC(C)=CC(=O)Nc1nnc(-c2ccccc2)s1,inactive: 81%
19,COc1ccc(-n2nc3ccc(NC(=O)COc4ccc(C)c(C)c4)cc3n2)cc1,inactive: 56%
20,CCC(OC(=O)C1=Cc2ccccc2OC1)C(=O)NC1CCCC1 (configuration not stated),inactive: 94%
21,CCc1ccccc1NC(=O)CN(Cc1ccccc1)S(=O)(=O)c1ccc2nc(C)sc2c1,inactive: 102%
22,CCOc1cc(C(=O)Nc2ccc3oc(-c4ccc(CC)cc4)nc3c2)cc(OCC)c1OCC,active: 41%
23,COc1ccccc1CCNC(=O)CCn1c(=O)c2cccn2c2ccc(F)cc21,active: 44%

row,SMILES,survival
1,Cc1cc(C)cc(NC(=O)CSCn2nnc3c(=O)[nH]c(Cc4ccc(F)cc4)nc32)c1,inactive: 50%
2,COc1ccc(CCNC(=O)CCc2c(C)nc3cc(-c4ccccc4)nn3c2C)cc1OC,inactive: 62%
3,CC(C)(C)NC(=O)C1CC(=O)OC1(C)C (configuration not stated),inactive: 102%
4,COc1ccc(OC)c(CCNC(=O)c2cc3c(-c4ccccc4F)nn(C)c3s2)c1,inactive: 54%
5,CCOC(=O)c1cccc(NC(=O)CC2C(=O)N(c3ccc(F)cc3)C(=O)N2C(C)C)c1 (configuration not stated),inactive: 89%
6,Cc1ccc(-c2nc3ncccc3o2)cc1NC(=O)COc1ccc(C(C)C)cc1,active: 6%
7,Cc1cc(C)c2nc(-c3ccco3)cc(C(=O)O)c2c1,inactive: 110%
8,Cc1ccc(C)n1CCC(=O)O,inactive: 116%
9,COCCCNC(=O)CC(c1cc(OC)c(OC)c(OC)c1)N1Cc2ccccc2C1=O (configuration not stated),inactive: 87%
10,COc1ccc(NC(=O)C(Cc2ccccc2)NS(=O)(=O)c2ccc(Br)s2)cc1OC (configuration not stated),inactive: 55%
11,Cc1noc(/C=C/c2ccco2)c1S(=O)(=O)N1CCC(C(=O)Nc2ccc(F)cc2F)CC1,inactive: 64%
12,Cc1ccc(OCC(=O)Nc2ccc3nc(SCc4ccccc4)sc3c2)cc1,inactive: 81%
13,Cc1cccc(OCc2ccc(-c3nc(C#N)c(N4CCC(C(N)=O)CC4)o3)o2)c1,inactive: 80%
14,CCc1cc2c(cc3c(=O)n(CCCC(=O)NCc4ccccc4Cl)nc(CC)n32)s1,inactive: 65%
15,CCOC(=O)c1cccc(NC(=O)Cn2c(=O)nc(-c3ccccc3)c3ccccc32)c1,inactive: 71%
16,Cc1cccc(C(=O)Nc2ccc(-c3nc4ccccc4s3)c(C)c2)c1,inactive: 71%
17,CCCCn1nnnc1SCC(=O)NCc1ccccc1,inactive: 98%
18,Cc1ccc(CNC(=O)C(C(C)C)N2Cc3ccccc3C2=O)cc1 (configuration not stated),inactive: 73%
19,CCN(c1ccc(OC)cc1)S(=O)(=O)c1c(C(=O)N2CCCCCC2)c(C)n(C)c1C,inactive: 80%
20,COc1ccc(N2CCN(CC(O)COc3ccccc3C(C)(C)C)CC2)cc1 (configuration not stated),active: -8%
21,O=C(NC1CCCCC1)c1ccc(Cn2c(SCc3cccc(F)c3)nc3cccnc32)cc1,inactive: 81%
22,CN(C(=O)CSc1cn(CC(=O)N2CCCCCC2)c2ccccc12)c1ccccc1,inactive: 72%
23,CCCCNc1sc(S(=O)(=O)CC)nc1S(=O)(=O)c1ccc(C)cc1,inactive: 74%

# Reference: PubChem BioAssay AID463173 (ICCB-Longwood Screening Facility, Harvard Medical School, 2010)
